SMILES strings stand for the structures. The list shows a part of the results. Repeats are few or missing, and single values can be far off.
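Further: cell number obtained by counting DAPI-stained nuclei in high-throughput microscope images with image analysis software, screen run in 1,536-well plates.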

For this assay, the system named is WM1716. As to the kind of experiment: cell count relative to DMSO control; melanoma cells; higher = more viable cells. Conditions: library dose: low library concentration; 72 h.
As to `CN(NC(=O)CC(=O)NN(C)C(=S)c1ccccc1)C(=S)c1ccccc1` + Oc1nc(-c2ccc(C(F)(F)F)cc2)nc2c1CSCC2 [XAV939] (first compound 0.006 µM, partner dose 2 µM), the cell count is 55.2%. Consider `CCc1ccc(CCOc2ccc(CC3SC(=O)NC3=O)cc2)nc1` (stereo not drawn) [pioglitazone] + CCN(CC)CCCCNc1ncc2cc(-c3cc(OC)cc(OC)c3)c(NC(=O)NC(C)(C)C)nc2n1 [PD173074] (first compound 2 µM, partner dose 0.1 µM), for which the cell count was determined as 107%.

Compound `CN(NC(=O)CC(=O)NN(C)C(=S)c1ccccc1)C(=S)c1ccccc1` + Cc1cc([N+](=O)[O-])ccc1NS(=O)(=O)c1cc(Cl)ccc1Cl [FH535] (first compound 0.006 µM, partner dose 1 µM) registered a cell count of 75.1%. The figure for `CC(C)(C)c1cnc(CSc2cnc(NC(=O)C3CCNCC3)s2)o1` + CCCCCCCCCCCC1=C(O)C(=O)C=C(O)C1=O [Embelin] (first compound 0.01 µM, partner dose 1.2 µM) is 102%; for `Cc1ccc(NC(=O)c2cccc(N(C)C)c2)cc1NC(=O)c1ccc(O)cc1` + O=C1NC(=O)/C(=C/c2ccc(-c3ccc(F)cc3O)o2)S1 [AS252424] (first compound 2 µM, partner dose 1 µM) it is 110%. In the case of `CC(C)(C)c1cnc(CSc2cnc(NC(=O)C3CCNCC3)s2)o1` + CCN(CC)CCCCNc1ncc2cc(-c3cc(OC)cc(OC)c3)c(NC(=O)NC(C)(C)C)nc2n1 [PD173074] (first compound 0.01 µM, partner dose 0.1 µM) it was 88.4%.

`Cc1ccc(NC(=O)c2cccc(N(C)C)c2)cc1NC(=O)c1ccc(O)cc1` + COc1ccc(-c2ccc3c(N4CCOCC4)nc(N4C[C@@H](C)O[C@@H](C)C4)nc3n2)cc1CO [KU0063794] (first compound 2 µM, partner dose 0.02 µM) returned a cell count of 99.4%. In the case of `Cc1ccc(NC(=O)c2cccc(N(C)C)c2)cc1NC(=O)c1ccc(O)cc1` + O=C(Nc1ccccc1)c1cc([N+](=O)[O-])ccc1Cl [GW9662] (first compound 2 µM, partner dose 2 µM) it was 110%; in that of `CCc1ccc(CCOc2ccc(CC3SC(=O)NC3=O)cc2)nc1` (stereo not drawn) [pioglitazone] + COc1ccc(-c2ccc3c(N4CCOCC4)nc(N4C[C@@H](C)O[C@@H](C)C4)nc3n2)cc1CO [KU0063794] (first compound 2 µM, partner dose 0.02 µM), 110%. In the case of `COc1cc2c(Oc3ccc4[nH]c(C)cc4c3F)ncnc2cc1OCCCN1CCCC1` [cediranib] + COC(=O)c1sccc1S(=O)(=O)Nc1ccc(Nc2ccccc2)cc1OC [GSK0660] (first compound 0.4 µM, partner dose 1 µM) it was 98%; in that of `CN(NC(=O)CC(=O)NN(C)C(=S)c1ccccc1)C(=S)c1ccccc1` + COc1ccc(-c2ccc3c(N4CCOCC4)nc(N4C[C@@H](C)O[C@@H](C)C4)nc3n2)cc1CO [KU0063794] (first compound 0.006 µM, partner dose 0.02 µM), 73.4%. In the case of `CCc1ccc(CCOc2ccc(CC3SC(=O)NC3=O)cc2)nc1` (stereo not drawn) [pioglitazone] + COc1ccc(COc2ccc(Cc3cnc(N)nc3N)cc2OC)cc1 [GW2580] (first compound 2 µM, partner dose 1 µM), the cell count was found to be 107%. In the case of `Cc1ccc(NC(=O)c2cccc(N(C)C)c2)cc1NC(=O)c1ccc(O)cc1` + CCCCCCCCCCCC1=C(O)C(=O)C=C(O)C1=O [Embelin] (first compound 2 µM, partner dose 1.2 µM) it was 105%.

In the case of `Cc1ccc(NC(=O)c2cccc(N(C)C)c2)cc1NC(=O)c1ccc(O)cc1` + CCN(CC)CCCCNc1ncc2cc(-c3cc(OC)cc(OC)c3)c(NC(=O)NC(C)(C)C)nc2n1 [PD173074] (first compound 2 µM, partner dose 0.1 µM), the cell count turned out to be 112%. The figure for `CCc1ccc(CCOc2ccc(CC3SC(=O)NC3=O)cc2)nc1` (stereo not drawn) [pioglitazone] + CCCCCCCCCCCC1=C(O)C(=O)C=C(O)C1=O [Embelin] (first compound 2 µM, partner dose 1.2 µM) is 114%; for `COc1cc2c(Oc3ccc4[nH]c(C)cc4c3F)ncnc2cc1OCCCN1CCCC1` [cediranib] + CCCCCCCCCCCC1=C(O)C(=O)C=C(O)C1=O [Embelin] (first compound 0.4 µM, partner dose 1.2 µM) it is 109%; for `CC(C)(C)c1cnc(CSc2cnc(NC(=O)C3CCNCC3)s2)o1` + Cc1cc([N+](=O)[O-])ccc1NS(=O)(=O)c1cc(Cl)ccc1Cl [FH535] (first compound 0.01 µM, partner dose 1 µM) it is 86.6%. In the case of `CC(C)(C)c1cnc(CSc2cnc(NC(=O)C3CCNCC3)s2)o1` + N#Cc1c(O)c2c(-c3ccc(-c4ccccc4O)cc3)csc2[nH]c1=O [A769662] (first compound 0.01 µM, partner dose 2 µM) it was 96.5%.
